# PubChem BioAssay AID588855 (National Center for Advancing Translational Sciences (NCATS), 2011)
# Out of some 410,000 compounds screened, about 5,000 (1.2%) were called active. This list was built around the results that the source calls inconclusive (neither active nor inactive); the mix of calls is not that of the screen. Calls follow the shape of the dose curve; as a rule, active = well fitted inhibition curve with a large enough effect; inconclusive = small, poorly fitted or top-dose-only effect; inactive = no such curve, though single readings can be large or run the other way. Potencies of inconclusive entries are doubtful fits and often do not repeat.
# Assay: qHTS for Inhibitors of TGF-b; also: nearly all actives have a fitted effect of over 65% in size
# Conditions: HepG2 CAGA-GFP TGF-b/SMAD3 reporter, GFP fluorescence, 18 h, TGF-beta stimulated, 500 pg/mL final; series mostly up to 46.1 µM
# Procedure, shortened: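 TGF-beta reporter screen: HEPG2 CAGA-GFP, 1% FBS, 500 pg/mL TGF-beta final, 18 h; per-cell GFP summed per well; curves fitted and categorized by class.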
# Potency is read from the fitted curve at half-maximal effect; tags tell the direction and shape of the fitted curve.
row,Structure (SMILES),Potency
1,Cc1ccc(S(=O)(=O)Cn2nnnc2CN2CCCC3(CCCCC3)C2)cc1,"inconclusive: 35.5 µM [inhibitor, single point]"
2,Cc1cccc(NC(=O)c2ccc3c(=O)n4c(nc3c2)CCCCC4)n1,"inconclusive: 35.5 µM [inhibitor, single point]"
3,O=C(c1cc(-n2cnnc2)ccc1Cl)N1CCN(c2nc(-c3ccccc3)cs2)CC1,active: 11.2 µM
4,O=C(CCc1ccc(S(=O)(=O)N2CCOCC2)cc1)Nc1cc(Cl)ccc1N1CCOCC1,"inconclusive: 35.5 µM [inhibitor, single point]"
5,CCOc1cc(C=NN=C2c3ccccc3-c3ccccc32)ccc1O,"inconclusive: 35.5 µM [inhibitor, single point]"
6,CCc1nc2ccc(C(=O)Nc3cccc(OC)c3)cn2c1N(CC)Cc1cccc(Br)c1,"inconclusive: 14.1 µM [inhibitor, single point]"
7,Cc1ccc(-c2nnc(Nc3cccc(C(F)(F)F)c3)c3ccccc23)cc1S(=O)(=O)N1CCOCC1,"inconclusive: 22.4 µM [inhibitor, partial curve, poor fit]"
8,CC(C)OC(=O)CSc1nc2ncc(Cl)cc2[nH]1,inactive
9,CCCc1nnc(NC(=O)CNc2ccc(F)cc2)s1,"inconclusive: 35.5 µM [inhibitor, single point]"
10,Cc1cc(Br)ccc1SCC(=O)N1CCN(S(=O)(=O)c2ccccc2)CC1,inactive
11,Cc1ccc(Nc2nc(N3CCOCC3)c3ccccc3n2)cc1,"inconclusive: 17.8 µM [inhibitor, single point]"
12,Cc1ccc(Cl)cc1N1CCN(c2ncnc3onc(-c4ccc(F)cc4)c23)CC1,inactive
13,Cc1ccc(Cn2c(C)c(CNC(C)c3ccccc3)c(C(=O)O)c2C)cc1 (stereo unspecified),inactive
14,Cc1cccc(-n2ncc3c2CCCC3NC(=O)CCc2ccncc2)c1C (stereo unspecified),inactive
15,CCOc1ccc(-c2nnn(CCC(=O)O)n2)cc1OC,"inconclusive: 22.4 µM [inhibitor, single point]"
16,Cc1nn(C)c(C)c1NC(=S)Nc1ccc(S(=O)(=O)Nc2ncccn2)cc1,"inconclusive: 6.31 µM [inhibitor, single point]"
17,COc1ccc(/C(C)=N/NC(=S)NCCc2ccccc2)cc1,"inconclusive: 11.2 µM [inhibitor, single point]"
18,CC1=C(C(=O)N(C(C)C)C(C)C)CC(CC(=O)NC2CCCCC2)C(=O)N1Cc1ccc(F)cc1 (stereo unspecified),"inconclusive: 35.5 µM [inhibitor, partial curve, poor fit]"
19,Cc1oc(-c2cccc(Cl)c2)nc1CN1CCC(C(=O)NCCc2ccc(Cl)cc2)CC1,inactive
20,C(=C\c1ccccc1)/CN1CCN(C(CCc2ccccc2)c2nnnn2-c2ccc3c(c2)OCCO3)CC1 (stereo unspecified),"inconclusive: 11.2 µM [inhibitor, single point]"
21,CC(C)C(NC(=O)COc1ccc2ccccc2c1)C(=O)N/N=C/C=C/c1ccccc1 (stereo unspecified),inactive
22,CCc1ccc(C2=C(C)C(N3CCC(C(=O)NCCc4ccco4)CC3)=NS2(=O)=O)cc1,inactive
23,CC(=O)Nc1sc2c(c1CN1CCN(c3ccccn3)CC1)CCCC2,"inconclusive: 20 µM [inhibitor, single point]"
24,CC(CC(=O)Nc1ccncc1)c1ccccc1 (stereo unspecified),"inconclusive: 35.5 µM [inhibitor, single point]"

row,Structure (SMILES),Potency
1,CC(C)(C)C(=O)NCCCc1nc2ccccc2n1CCCOc1ccc(Cl)cc1,active: 12.6 µM
2,Cc1ccc(CN2C(=O)[C@H]3Cc4c([nH]c5ccccc45)C(C)(C)N3C2=O)cc1,"inconclusive: 35.5 µM [inhibitor, single point]"
3,CCc1cc2cc(C)cc(C)c2nc1SCC(=O)N1CCCC1,inactive
4,Cn1nnnc1SCCNCc1ccc(OCc2ccc(Cl)cc2)cc1,"inconclusive: 20 µM [inhibitor, single point]"
5,C/C(CC(=O)Nc1cccc2c1CCCC2)=N\NC(=O)COc1ccccc1,"inconclusive: 15.8 µM [inhibitor, partial curve, poor fit]"
6,CCCCNC(=O)C1CCC(CNc2nc(=S)[nH]c3ccccc23)CC1 (stereo unspecified),"inconclusive: 0.199 µM [inhibitor, full curve, poor fit]"
7,COc1ccc(Cl)cc1C(=O)n1cnc2ccccc21,inactive
8,COc1ccc(-c2csc(NC(C)c3nc4cc(C(=O)NCCCO)ccc4n3Cc3ccc(C)cc3)n2)cc1 (stereo unspecified),"inconclusive: 35.5 µM [inhibitor, single point]"
9,COc1ccc(N2CCN(C(=O)COC(=O)c3cccc(S(=O)(=O)Nc4cccc(C)c4)c3)CC2)cc1,"inconclusive: 25.1 µM [inhibitor, single point]"
10,CCC(=O)N1CCc2cc(CNC(=O)Nc3cc(Cl)ccc3C(=O)OC)ccc21,"inconclusive: 35.5 µM [inhibitor, single point]"
11,COc1ccc(Cc2nnc(SCC(=O)Nc3ncc(C)s3)o2)cc1,inactive
12,COc1ccccc1CN1CCC(CNC(=O)c2cnn(-c3ccc(C)c(C)c3)c2C2CCN(C(=O)OC(C)(C)C)CC2)CC1,"inconclusive: 10 µM [inhibitor, partial curve, poor fit]"
13,CSc1ccc(CN2C(=O)NC3(CCCCC3)C2=O)cc1,inactive
14,CCC/C=C1/CCCOC(C(=O)NCc2ccccc2)(C(F)(F)F)C1 (stereo unspecified),"inconclusive: 11.2 µM [inhibitor, partial curve, poor fit]"
15,COc1ccc(S(=O)(=O)CCC(=O)N2CCN(c3ccc([N+](=O)[O-])cc3)CC2)cc1,"inconclusive: 35.5 µM [inhibitor, single point]"
16,CCc1noc(-c2ccc(N3CCCCC3)c([N+](=O)[O-])c2)n1,inactive
17,O=c1c2ccccc2nc(/C=C/c2cc(Br)ccc2O)n1CCO,"inconclusive: 15.8 µM [inhibitor, single point]"
18,CCOc1ccc(CN(C)C(=O)CCNC(=O)c2ccco2)cc1,inactive
19,O[C@H]1CN(CC2CCCCC2)[C@@H](c2ccc(Cl)cc2)C[C@@H]1n1cc(C2CC2)nn1,active: 10 µM
20,CC(C)(C)OC(=O)CNC(=O)c1[nH]cnc1C(=O)Nc1ccc(Cl)cc1,"inconclusive: 20 µM [inhibitor, single point]"
21,Cc1nc(-c2cccc(S(=O)(=O)N3CCCCCC3)c2)cs1,inactive
22,COc1cccc(N(CC(=O)NCCSc2ccccn2)S(=O)(=O)c2ccccc2)c1,inactive
23,O=C(COc1ncnc2c(Cl)cc(Cl)cc12)NCCC1=CCCCC1,inactive
24,CCOc1ccc(C(=O)NCc2ccc3c(c2)CCN3C(=O)c2ccc(C)cc2)cc1OCC,inactive

row,Structure (SMILES),Potency
1,Cc1ccccc1-c1nnc(-c2ccc(Br)cc2)o1,inactive
2,O=c1c(S(=O)(=O)c2ccc(Cl)cc2)cn(Cc2ccc(F)cc2)c2ccc(F)cc12,inactive
3,Cc1ccc(N2CCN(C(=O)c3ccccc3NC(=O)C3CC=CCC3C(=O)O)CC2)cc1 (stereo unspecified),"inconclusive: 1.58 µM [inhibitor, partial curve]"
4,CC(=O)Nc1ccc(-c2ccnc3c2CC(C)(C(=O)Nc2ccc(C(C)C)cc2)O3)cc1 (stereo unspecified),"inconclusive: 35.5 µM [inhibitor, single point]"
5,Cc1ccn2c(Nc3ccc4c(c3)OCCO4)c(-c3ccc(C)s3)nc2c1,inactive
6,CC(=O)NCCc1ccc(S(=O)(=O)N2CCCC2)cc1,inactive
7,Cc1ccc2nc(SCC(=O)Nc3ccc(C#N)cc3)[nH]c2c1,"inconclusive: 35.5 µM [inhibitor, single point]"
8,C=CCn1c(NC(=O)c2ccc(Br)o2)c(S(=O)(=O)c2ccccc2)c2nc3ccccc3nc21,"inconclusive: 25.1 µM [inhibitor, single point]"
9,COc1ccc(OC)c(NC(=O)CCc2nc(-c3ccc(C)cc3)no2)c1,"inconclusive: 31.6 µM [inhibitor, single point]"
10,CCOC(=O)C1CCCN(C(=O)c2cnn3c(C(F)F)cc(-c4ccc(C)cc4)nc23)C1 (stereo unspecified),"inconclusive: 0.1 µM [inhibitor, full curve, poor fit]"
11,COc1ccccc1Cc1nc2ccccc2nc1SCC(=O)N1CCC(C)CC1,active: 15.8 µM
12,C=CCn1cnc2c(nnn2-c2ccc(Cl)cc2)c1=O,inactive
13,CCCC[n+]1c2ccccc2cc2ccccc21,"inconclusive: 35.5 µM [inhibitor, single point]"
14,COc1ccccc1C(=O)NCCC(=O)OCC(=O)Nc1ccc(S(N)(=O)=O)cc1,inactive
15,COc1cc(-c2nnc(SCC(=O)Oc3ccccc3Cl)o2)cc(OC)c1OC,inactive
16,Cc1ccccc1NS(=O)(=O)c1ccc(OCC(=O)NCc2ccco2)cc1,"inconclusive: 14.1 µM [inhibitor, single point]"
17,O=C(/C=C/c1cccc(F)c1)c1ccc(N2CCOCC2)cc1,active: 12.6 µM
18,COc1ccc(S(=O)(=O)c2cn(Cc3ccccc3)c3ccc(OC)cc3c2=O)cc1,"inconclusive: 35.5 µM [inhibitor, single point]"
19,CC1C(C)N(C(=O)CCCl)c2ccccc2N1C(=O)CCCl (stereo unspecified),inactive
20,COc1cc([N+](=O)[O-])cc(/C=N/NC(=O)CSc2ccccn2)c1O,"inconclusive: 7.94 µM [inhibitor, partial curve]"
21,CCOC(=O)CNC(=O)c1ccc2[nH]c3ccccc3c2c1,"inconclusive: 10 µM [inhibitor, partial curve, poor fit]"
22,Cc1cccc(N2CCN(CC(O)COc3ccccc3)CC2)c1 (stereo unspecified),"inconclusive: 10 µM [inhibitor, partial curve]"
23,COc1ccccc1NC(=O)Nc1nnc(C(C)C)s1,inactive
